Reference: PubChem BioAssay AID1963576 (National Center for Advancing Translational Sciences (NCATS), 2024)
Among all 46,000 compounds or so, about 60 (0.1%) were called active. About 3% were inconclusive and are not listed. Calls come from the whole dose curve; as a rule, active = well fitted inhibition curve with a large enough effect; inconclusive = small, poorly fitted or top-dose-only effect; inactive = no such curve, though single readings can be large or run the other way. The list shows a part of the results.

assay: Primary qHTS assay for Inhibitors of ovarian cancer metastasis using an organotypic tumor microenvironment (TME) model.; note: nearly all actives have a fitted effect of over 65% in size;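 for activity change, negative = inhibition: plate controls were DMSO wells for no effect and tomatine positive control wells for full effect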; conditions: SKOV3ip1-GFP adhesion/invasion on 3D omental model, fluorescence; series mostly up to 45.8 µM; activity change, negative = inhibition: at the top concentration
Method in brief: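 Adhesion/invasion was scored as fixed GFP-labeled SKOV3ip1 cell counts (488/509 nm), normalized to DMSO and tomatine controls. Cancer cells in serum-free medium, with four compound doses (0.36-46 umol/L), sat 2 hr at RT then 16 hr at 37 C on a 48 hr fibroblast/mesothelial/ECM culture.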

Activity change, negative = inhibition, inactive:
Cc1ccc(Cl)cc1N1CCN(CCCNC(=O)Cn2ncc3c([nH]c4ccccc43)c2=O)CC1 1.81%, CCOc1ccc(N(C(=O)c2ccc(Cl)cc2)S(=O)(=O)c2ccc3c(c2)n(C)c(=O)n3C)cc1 -0.319%, Fc1ccc(-c2noc3ncnc(Nc4ccc(F)cc4F)c23)cc1 2.24%, CCOc1ccc(CCNC(=O)c2cccc(Nc3nc4ccccc4nc3-n3nc(C)cc3C)c2)cc1OCC 4.6%, COc1ccc(S(=O)(=O)c2c(Nc3c(C)cccc3C)sc(C(=O)c3ccc(F)cc3)c2N)cc1 22.6%, COC(=O)c1ccccc1NC(=O)C1=CC(c2ccc3c(c2)OCO3)=NS(=O)(=O)N1C 5.97%, Cc1ccc(CNc2nc3ccc(Cl)cc3n3cnnc23)cc1 -7.16%, CCc1cccc(C)c1Nc1c(-c2ccc(SC)cc2)nc2sccn12 -0.732%, Cc1ccc(C)c(NC(=O)CSc2nc(-c3ccccc3)c(C#N)c(=O)[nH]2)c1 2.98%, CC(=O)c1cccc(NC(=O)Nc2c(C)n(C)n(-c3ccccc3)c2=O)c1 3.72%, COc1ccc(-c2cc(-c3ccccc3)nc(SCC(=O)Nc3ccccc3C)c2C#N)cc1 3.86%, Cc1cccc(-c2nc(CCNC(=O)COc3ccccc3)cs2)c1 -3.9%, COc1ccc(CCNC(=O)Cn2nnc(-c3ccc(Cl)cc3)n2)cc1OC -3.7%, O=C(CSc1ccc(-c2cccs2)nn1)Nc1ccccc1 18.7%, Cc1cccc(NC(=O)CSc2ncc(-c3ccc(Br)cc3)[nH]2)c1 -5.33%, CC(C)Oc1ccc(CN2CCc3nc(Nc4ccc5c(c4)OCCO5)ncc3C2)cc1 -1.3%, Cc1ccc(Sc2c(C(=O)NCc3cccc(F)c3)[nH]c3ccccc23)cc1 4.22%, CC(NC(=O)CN1C(=O)COc2ccc(S(=O)(=O)N3CCCCCC3)cc21)c1ccccc1 (stereo not drawn) 3.08%, CN(C)CCNC(=O)c1ccc(-n2c(-c3ccccc3)cc3c2CCCCC3)cc1 -5.55%, Cc1ccc(-c2nc3cc(NC(=O)c4cc5ccccc5o4)ccc3o2)cc1Cl -2.54%, CCN1CCc2c(sc(NC(=O)c3ccc(S(=O)(=O)N(CCOC)CCOC)cc3)c2C(N)=O)C1 -27.8%, COC(=O)c1ccc(NC(=O)CN2CCCN(Cc3ccc(Cl)cc3)S2(=O)=O)cc1 -8.51%, Cc1c(C(=O)N(C)C)sc2c1c(=O)n(-c1ccc(Cl)c(Cl)c1)c(=O)n2CC(=O)C(C)(C)C -6.99%, Cc1nc2ccn(Cc3cccs3)c(=O)c2cc1C(=O)NCc1ccc(Br)cc1 -14.1%, COc1ccc(OC)c(NC(=O)CSC2=Nc3ccccc3C3=NC(CCC(=O)NCc4ccccc4)C(=O)N23)c1 (stereo not drawn) 25%, CCc1nn(CC(=O)N2CCC(C)CC2)c(=O)c2cc3occc3n12 265%, Cc1ccc(NC(=O)CSc2nc3ccccc3n2CC(=O)N2CCC(C)CC2)cc1C -6.02%, Cc1cccc(N2CCN(C(=O)CN3C(=O)COc4ccc(S(=O)(=O)N5CCC(C)CC5)cc43)CC2)c1C -2.62%, Cc1ccc2sc(N(Cc3cccnc3)C(=O)Cc3ccccc3)nc2c1C 6.8%, CCC(=O)Oc1cc(C(C)(C)C)cc2cc(-c3nc(-c4ccc(OC)cc4OC)no3)c(=O)oc12 -1.49%, CCOc1ccc(N(CC(=O)Nc2cc(OC)cc(OC)c2)S(=O)(=O)c2c(C)[nH]c(=O)[nH]c2=O)cc1 1.21%, Cc1ccc(-n2nc3c(N4CCC(C(=O)NC5CCC(C)CC5)CC4)nnc(C)c3c2C)cc1 (stereo not drawn) -2.9%, O=C(CCCCCCC(=O)Nc1ccc([C@H]2O[C@@H](CSc3nc(-c4ccccc4)c(-c4ccccc4)o3)C[C@@H](c3ccc(CO)cc3)O2)cc1)NO -15.5%, CN(C)CCNC(=O)c1ccc(Cn2c(SCc3ccc(F)cc3)nc3cccnc32)cc1 -17%, Cc1ccc(C(=O)c2cn(Cc3ccccc3F)c3cc4c(cc3c2=O)OCCO4)cc1 -30.5%, CN(CC(=O)NCc1ccc(Cl)cc1)S(=O)(=O)c1ccc2[nH]c3c(c2c1)CCCC3 -18%, COc1ccc(CNc2nc(-c3ccccc3)nn2S(=O)(=O)c2ccccc2)cc1 -11.9%, Cc1ccc2c(c1)c1c(c(=O)n(-c3cccc(Cl)c3)c(=O)n1CC(=O)NCCC1=CCCCC1)n2C 4.39%, COc1ccccc1CNC(=O)CCC1N=C2c3ccccc3N=C(SCC(=O)Nc3ccc(F)cc3)N2C1=O (stereo not drawn) 1.73%, CCCc1cc(=O)n2c(C(=O)Nc3ccc(OCC)cc3)c(C(=O)Nc3ccc(C)cc3)sc2n1 -3.01%, COc1cccc(C2c3c(oc4cc(C)cc(C)c4c3=O)C(=O)N2CCc2ccc(OC)c(OC)c2)c1 (stereo not drawn) 5.57%, CCOC(=O)C1CCC(CN(Cc2ccc(OC)cc2)S(=O)(=O)c2ccc(F)c(C(=O)Nc3ccc(C)c(C)c3)c2)CC1 (stereo not drawn) -0.687%

outcome, inactive:
Cc1cccc(NC(=O)Cn2c(=O)n(Cc3ccccc3)c(=O)c3sc4ccccc4c32)c1, O=C(CC1N=C2c3ccccc3N=C(SCc3ccc(F)cc3)N2C1=O)NC1CCCCC1 (stereo not drawn), COc1cccc(CNc2nc3ccccc3c3nc(-c4cccc(C)c4)nn23)c1, Cc1ccc(CN(Cc2ccco2)C(=O)c2ccc(Cl)cc2Cl)cc1, CCOCCCn1c(SCC(=O)Nc2cc(C)ccc2C)nc2c(oc3ccccc32)c1=O, COc1ccccc1CNC(=O)CCC(=O)N1CC(C)Sc2ccccc21 (stereo not drawn), O=C(COc1ccc(Cl)cc1)N(Cc1ccco1)Cc1ccco1, Cc1csc2nc(COC(=O)c3cccc(NC(=O)c4cccc(Cl)c4)c3)cc(=O)n12, CCCN(c1ccc(C(C)C)cc1)S(=O)(=O)c1ccc2c(c1)n(C)c(=O)c(=O)n2C, O=S(=O)(Nc1cccc(C(F)(F)F)c1)c1ccc(NS(=O)(=O)c2ccc3c(c2)OCCO3)cc1, COc1ccc(C(=O)Nc2cccc(-c3cn4ccsc4n3)c2)c(OC)c1, O=C(c1cccs1)c1cn(CCOc2ccc(Cl)cc2)c2ccccc12, CC1=C(C(N)=O)C(c2cccc(O)c2)n2ncnc2N1 (stereo not drawn), CCn1c(SCc2ccccc2C)nc(=O)c2c(C(=O)OC)cc(C3CC3)nc21, O=c1cc(CSc2ncn[nH]2)[nH]c2ccc(F)cc12, COc1ccc(-n2c(Cc3ccccc3)nnc2SCc2nc(-c3cccs3)no2)cc1
